From article PMC4336329 (PLoS ONE, 2015)
Screen size: about 310,000 compounds; about 2,200 (0.71%) showed an effect of 50% or more. The effect is printed as a negative number. The list shows a part of the results.

target: human ether-à-go-go-related gene (hERG) potassium channel (human, UniProt Q12809); assay: primary screen, population patch clamp on CHO cells stably expressing hERG
Sequence (Q12809 whole entry, looked up): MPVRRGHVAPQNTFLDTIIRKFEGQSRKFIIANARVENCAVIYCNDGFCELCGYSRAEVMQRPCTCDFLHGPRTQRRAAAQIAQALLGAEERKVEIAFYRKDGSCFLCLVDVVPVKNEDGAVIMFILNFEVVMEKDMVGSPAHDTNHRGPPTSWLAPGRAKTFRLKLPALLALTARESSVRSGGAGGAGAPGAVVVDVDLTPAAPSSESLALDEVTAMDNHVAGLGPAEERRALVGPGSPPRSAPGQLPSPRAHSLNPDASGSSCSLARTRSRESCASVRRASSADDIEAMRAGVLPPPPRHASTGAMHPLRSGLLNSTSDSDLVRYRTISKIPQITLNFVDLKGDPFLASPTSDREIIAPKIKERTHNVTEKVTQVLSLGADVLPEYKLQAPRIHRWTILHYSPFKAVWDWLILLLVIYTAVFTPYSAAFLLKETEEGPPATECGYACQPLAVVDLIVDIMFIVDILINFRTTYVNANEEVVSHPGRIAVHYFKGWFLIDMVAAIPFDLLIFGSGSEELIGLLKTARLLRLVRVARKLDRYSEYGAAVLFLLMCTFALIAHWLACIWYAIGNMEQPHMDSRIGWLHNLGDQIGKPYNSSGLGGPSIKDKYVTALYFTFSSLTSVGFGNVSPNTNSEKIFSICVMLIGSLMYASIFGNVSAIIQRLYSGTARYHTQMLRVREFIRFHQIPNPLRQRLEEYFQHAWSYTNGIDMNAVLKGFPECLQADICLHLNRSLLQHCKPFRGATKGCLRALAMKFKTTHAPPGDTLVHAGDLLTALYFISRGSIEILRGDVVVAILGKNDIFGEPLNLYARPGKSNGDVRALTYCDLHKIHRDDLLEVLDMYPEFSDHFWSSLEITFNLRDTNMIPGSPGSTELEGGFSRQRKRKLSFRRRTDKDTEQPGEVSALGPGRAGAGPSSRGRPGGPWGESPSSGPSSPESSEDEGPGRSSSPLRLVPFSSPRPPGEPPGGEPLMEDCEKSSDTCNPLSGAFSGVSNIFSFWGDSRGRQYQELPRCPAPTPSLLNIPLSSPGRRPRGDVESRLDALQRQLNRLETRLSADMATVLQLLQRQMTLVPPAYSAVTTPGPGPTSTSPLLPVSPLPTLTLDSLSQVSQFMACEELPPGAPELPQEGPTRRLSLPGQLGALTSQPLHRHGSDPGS

Compared with COc1ccc(N(C(=O)CNC(=O)c2cccs2)C(C(=O)NCC2CCCO2)c2ccccc2)c(OC)c1 (stereo not drawn), O=C(CNC(=O)c1ccccc1F)OC(C(=O)Nc1cc(C(F)(F)F)ccc1Cl)c1ccccc1 (stereo not drawn) is higher in “hERG current change (%, negative = inhibition) at 1uM” value: 2.9% for the first, 8.23% for the second.

Going from CCOc1cc(C2C3=C(CCCC3=O)Nc3nc(C(=O)OC)nn32)ccc1OC (stereo not drawn) to COc1ccc(C(=O)N(CN2CCCC2=O)c2cc(C)on2)cc1OC, the “hERG current change (%, negative = inhibition) at 1uM” value falls from 11.8% to -15.9%.

Compared with N#C/C(=C/c1ccc(N2CCCCC2)o1)C(=O)NCCc1c[nH]c2ccccc12, N#C/C(=C\c1ccc(Sc2nc3ccccc3[nH]2)o1)c1ccccc1 is lower in “hERG current change (%, negative = inhibition) at 1uM” value: 6.88% for the first, -1.26% for the second.

First: N#Cc1cccc(Oc2ccc(-c3cnc4ccccc4n3)cc2)c1C#N
Second: O=C(O)c1ccc2nc(-c3ccccc3)c(-c3ccccc3)nc2c1
The “hERG current change (%, negative = inhibition) at 1uM” value of the first is lower: 4.24% for the first, 5.64% for the second.

Going from Cc1cc(C)cc(NC(=O)c2ccc(CN3CCc4ccccc4C3)cc2)c1 to O=C(Nc1ccc(CN2CCOCC2)cc1)c1cccc(F)c1, the “hERG current change (%, negative = inhibition) at 1uM” value rises from 0.822% to 8.16%.

Compared with O=c1c2ccccc2c(-c2ccc(Br)cc2)nn1Cc1ccccc1, CCOc1ccccc1-c1cc(C(=O)N/N=C/c2cccnc2)c2ccccc2n1 is lower in “hERG current change (%, negative = inhibition) at 1uM” value: 13.5% for the first, 8.18% for the second.

First: CCOc1ccc(C2CC(c3ccccc3C)n3nc(N)nc3N2)cc1 (stereo not drawn)
Second: CCOc1ccc(C(=O)N(c2ccccn2)C2CCCCC2)cc1
The “hERG current change (%, negative = inhibition) at 1uM” value of the first is higher: 8.43% for the first, 2.99% for the second.

Going from CCc1ccc(N2CC(C(=O)Nc3cccnc3)CC2=O)cc1 (stereo not drawn) to Cc1ccc(N2CC(C(N)=O)CC2=O)cc1 (stereo not drawn), the “hERG current change (%, negative = inhibition) at 1uM” value rises from 4.07% to 4.64%.

Compared with CSc1ncc(CNc2cc([N+](=O)[O-])ccc2C)c(N)n1, COC(=O)c1cnc(SCc2ccc([N+](=O)[O-])cc2)n1C is lower in “hERG current change (%, negative = inhibition) at 1uM” value: 17.3% for the first, 0.751% for the second.

Compared with Cc1sc2nc(CN3CCCCC3)nc(N3CCN(C(=O)c4ccco4)CC3)c2c1C, CC1CCN(S(=O)(=O)c2ccc(NC(=O)CN3CCCC3)cc2)CC1.O=C(O)C(=O)O is higher in “hERG current change (%, negative = inhibition) at 1uM” value: -45.2% for the first, 5.7% for the second.

Going from CCOc1ccc(N(CC(=O)Nc2cccnc2)S(=O)(=O)c2ccc(C)cc2)cc1 to O=C(CSc1ccc(Br)c2cccc(Cl)c12)Nc1ccc(S(=O)(=O)Nc2nccs2)cc1, the “hERG current change (%, negative = inhibition) at 1uM” value rises from 4.55% to 15.1%.

First: COc1cc2c(cc1OC)N1C(=O)CC(OCC(=O)O)C3C4CC5(CCN5C(=O)C4=O)C2C31 (stereo not drawn)
Second: COc1ccc(CCNC(=O)c2nnn(-c3ccccc3OC)c2N)cc1OC
The “hERG current change (%, negative = inhibition) at 1uM” value of the first is higher: 20.8% for the first, 9.98% for the second.

Going from Cc1ccc(/C(O)=C/c2nc3ccccc3oc2=O)cc1 to CCOC(=O)c1ccccc1NC(=O)c1ccc(NS(C)(=O)=O)cc1, the “hERG current change (%, negative = inhibition) at 1uM” value falls from 12.7% to -36.4%.

Going from CC(C)(C)C(=O)Nc1ccc(-c2cn3cccnc3n2)cc1 to O=C(Nc1nnc(-c2ccc(F)cc2)o1)c1ccco1, the “hERG current change (%, negative = inhibition) at 1uM” value rises from -0.16% to 8.5%.

Going from CCOC(=O)C1CCN(C(=O)c2ccc(NC(=O)C3CCCO3)cc2)CC1 (stereo not drawn) to Cc1ccc(CNC(=O)C2CCN(C(=O)c3cccc(Cl)c3)CC2)cc1, the “hERG current change (%, negative = inhibition) at 1uM” value rises from -18.2% to 3.01%.

First: Cc1cc(C)cc(NC2=NC3(CCCCC3)N=C(N)N2)c1
Second: Cc1ccc(Nc2ccc(S(=O)(=O)N3CCOCC3)cc2[N+](=O)[O-])cc1C
The “hERG current change (%, negative = inhibition) at 1uM” value of the first is higher: 11% for the first, 10.5% for the second.

Compared with CCOC(=O)C1=C(C)NC2(O)c3ccccc3C(=O)C12O (stereo not drawn), CCOC(=O)c1nnn(-c2nonc2N)c1-c1cccs1 is higher in “hERG current change (%, negative = inhibition) at 1uM” value: 2.48% for the first, 5.98% for the second.

Going from O=C(O)c1cc(-c2cccs2)nc2ccc(Br)cc12 to O=C(O)c1coc2ccccc12, the “hERG current change (%, negative = inhibition) at 1uM” value rises from 10.1% to 16.1%.

First: CS(=O)(=O)N(CC(=O)Nc1ccc(S(=O)(=O)N2CCCC2)cc1)c1cccc(F)c1
Second: O=C(COC(=O)Cc1ccccc1F)Nc1ccc2c(c1)OCCO2
The “hERG current change (%, negative = inhibition) at 1uM” value of the first is lower: 8.7% for the first, 10.8% for the second.

Going from Cc1ncc([N+](=O)[O-])n1CC(=O)Nc1cc(Cl)ccc1Cl to Cc1c(Cl)cnc(NC(=O)CSc2n[nH]c(N)n2)c1Cl, the “hERG current change (%, negative = inhibition) at 1uM” value falls from 19.7% to 6.43%.

Compared with Cc1occc1C(=O)NC1CCCN(Cc2ccc(Cl)cc2)C1 (stereo not drawn), O=C(CSc1nc2ccccc2[nH]1)NC1CCCC1 is higher in “hERG current change (%, negative = inhibition) at 1uM” value: 5.08% for the first, 12% for the second.

First: S=c1nc(NCc2ccc3c(c2)OCO3)c2ccccc2[nH]1
Second: CN1CCc2nc3ccc(Cl)cc3c(-c3ccccc3Cl)c2C1.Cl
The “hERG current change (%, negative = inhibition) at 1uM” value of the first is higher: 13.8% for the first, -4.85% for the second.

Going from COc1ccc(C(=O)NC2CCCc3c2cnn3-c2ccc(C)c(C)c2)c(OC)c1OC (stereo not drawn) to COc1cccc(C=NCC(C)N=Cc2cccc(OC)c2O)c1O (stereo not drawn), the “hERG current change (%, negative = inhibition) at 1uM” value falls from 13.2% to 1.06%.

Compared with Cc1ccc(/C=N/NC(=O)C2CC(=O)N(c3ccccc3)C2)s1 (stereo not drawn), O=c1ccn(-c2ccccc2)[nH]1 is higher in “hERG current change (%, negative = inhibition) at 1uM” value: -1.7% for the first, 8.25% for the second.

Compared with CCC(=O)NCc1nc2ccccc2n1Cc1ccccc1F, O=C1c2ccccc2C(=O)N1CCCCn1c(=O)oc2ccccc21 is lower in “hERG current change (%, negative = inhibition) at 1uM” value: 7.2% for the first, 1.48% for the second.

Compared with Cc1cc(C=O)c(C)n1-c1cc(C(F)(F)F)ccc1N1CCOCC1, Cc1nn2c(nc(N3CCOCC3)c3ccccc32)c1C=C(C#N)C#N is lower in “hERG current change (%, negative = inhibition) at 1uM” value: 14.4% for the first, -22.6% for the second.

First: CC1CCN(C(=O)CSc2nnc(CSc3ncccn3)n2C)CC1
Second: Cc1ccc(OCCN(C)C(=O)C2CCC(=O)N(CCCN3CCOCC3)C2)cc1 (stereo not drawn)
The “hERG current change (%, negative = inhibition) at 1uM” value of the first is higher: 18.9% for the first, 11.3% for the second.

Going from CC(C)(C)c1n[nH]c(=S)n(/N=C/c2cccs2)c1=O to Cc1ccc(-n2nnnc2/C=C\Nc2cc(C)on2)cc1, the “hERG current change (%, negative = inhibition) at 1uM” value falls from 17.2% to 9.47%.

In the case of CN(CC(=O)Nc1ccc(Cl)c(C(F)(F)F)c1)C(=O)Cc1ccsc1, the “hERG current change (%, negative = inhibition) at 1uM” value is reported as 9.92%.
